# Measurements as given in PubChem BioAssay AID463173 (ICCB-Longwood Screening Facility, Harvard Medical School, 2010).
# The whole screen tested about 52,000 compounds, of which about 1,700 (3.3%) were called active. No stated cut-off is given here; in the data, active means survival mostly below about 52% (no sharp cut-off); inactive means mostly above about 56%. This is one part of the list.
# System: Wild type
# Test: S. aureus survival, RN4220 and DeltatarO strains – OD600, teichoic acid synthesis inhibitors, primary screen (AID 463173)
# Details: S. aureus RN4220 wild type/DeltatarO growth, OD600, 18 h, stronger effect = lower value, screened at 18.75 µg/mL (by protocol)
row,Compound,survival
1,Cc1onc(-c2c(F)cccc2Cl)c1C(=O)Nc1ccc(OC(C)C)cc1,inactive: 76%
2,COc1ccc(S(=O)(=O)c2c(O)c3ccc(C(=O)NCc4ccccc4)cc3[nH]c2=O)cc1,inactive: 94%
3,CCOCCCn1c(=N)c(C(=O)NCc2cccnc2)cc2c(=O)n3cc(C)ccc3nc21,inactive: 75%
4,CCOC(=O)c1cnc2c(ccc3ccccc32)c1Nc1ccc(OCC)cc1,active: -2%
5,O=C1CCCc2cc(S(=O)(=O)NCC3CCC(C(=O)NCc4ccccc4Cl)CC3)ccc2N1 (stereo not drawn),inactive: 68%
6,COc1ccc(CCNC(=O)c2cc3c(s2)-c2ccccc2OC3)cc1OC,inactive: 83%
7,Fc1ccc(N2CCN(c3ncnc4c3nc3n4CCCCC3)CC2)cc1,inactive: 55%
8,Cc1cccc(NC(=O)Nc2ccc(Br)cc2)n1,inactive: 134%
9,COc1ccccc1N1CCN(C(=O)c2c(C)oc3ncn(CC(C)C)c(=O)c23)CC1,inactive: 60%
10,O=C(Cn1ccc2ccccc2c1=O)NCCC(=O)Nc1ccc(F)cc1F,inactive: 64%
11,COCCOC(=O)C1=C(C)NC(=S)NC1c1ccc(C)c(OC)c1 (stereo not drawn),inactive: 97%
12,CCOc1ccc(Nc2cc(C)nc3nc(Cc4ccc(Cl)cc4)nn23)cc1,inactive: 83%
13,Cc1ccc(-n2nc3c(N4CCC(C(=O)NC(C)c5ccccc5)CC4)nnc(C)c3c2C)cc1 (stereo not drawn),inactive: 153%
14,NC(=S)Cc1c[nH]c2ccccc12,inactive: 99%
15,COc1ccc(CCNC(=O)Cn2c(=O)c3cccn3c3ccc(F)cc32)c(OC)c1,inactive: 88%
16,O=C(Nc1ccc2c(c1)oc1ccccc12)C(F)(F)F,inactive: 103%
17,CC(=O)Nc1ccc(Nc2nc3c(S(=O)(=O)c4cccc(Cl)c4)nnn3c3ccsc23)cc1,inactive: 89%
18,Cc1ccc(C)c(-c2nnc(NC(=O)c3ccc4c(c3)OCCO4)o2)c1,inactive: 80%
19,CCN(CC)Cc1c(NC(=O)c2ccc(OC)cc2)sc2c1CCCC2,inactive: 66%
20,CCCC(=O)N1CCCC(c2nc(-c3cccs3)no2)C1 (stereo not drawn),inactive: 118%
21,Cc1ccc(NC(=O)CN2C(=O)CCc3cc(S(=O)(=O)N4CCCCC4)ccc32)cc1C,inactive: 118%
22,Cc1cc(C)cc(-n2c(C)nc3cc(C(=O)NCc4ccccc4Cl)ccc32)c1,inactive: 99%
23,COc1ccc(CCNC(=O)c2cnc3sc(N4CCCCC4)nn3c2=O)cc1OC,inactive: 77%
24,Cc1oc2ncn(CC(C)C)c(=O)c2c1C(=O)NCCCN1CCC(C)CC1,inactive: 111%

row,Compound,survival
1,O=C(COc1ccccc1F)OCc1cc(=O)n2nc(C3CC3)sc2n1,inactive: 66%
2,COc1ccc(-c2cc(C(=O)Oc3cccc(C)c3)c3cc(C)ccc3n2)cc1,inactive: 19%
3,Cc1ccc2c(c1)N(CC(=O)N1CCCCC1C)C(=O)CO2 (stereo not drawn),inactive: 98%
4,CCOC(=O)c1c(N)sc2c(OC)c(Br)ccc12,inactive: 100%
5,CCCn1c(=O)c2c(nc3n2CCN3c2ccc(C)cc2)n(C)c1=O,inactive: 89%
6,COc1cccc2cc(C(=O)Nc3ccc(N4CCNCC4)cc3)c(=O)oc12,inactive: 110%
7,Cc1ccc(NC(=O)c2cc3c(=O)n(Cc4ccco4)ccc3nc2C)cc1C,inactive: 65%
8,Cc1ccc(CN(C(=O)COc2ccc(Cl)cc2C)C2CCS(=O)(=O)C2)o1 (stereo not drawn),inactive: 86%
9,CCOC(=O)c1c(NC(=O)c2cc(CC(C)C)on2)sc(C(C)=O)c1C,inactive: 94%
10,O=C(COC(=O)c1ccccn1)Nc1ccccc1,inactive: 89%
11,Cc1nc2sc(C(=O)N(C)c3ccccc3)c(NC(=O)c3ccccc3Cl)c2c(C)c1C,inactive: 72%
12,COC(=O)c1cn(C(C)C(=O)NCc2ccco2)c2ccccc12 (stereo not drawn),inactive: 89%
13,CSc1ccc(C2c3c(oc4cc(C)cc(C)c4c3=O)C(=O)N2CCO)cc1 (stereo not drawn),inactive: 80%
14,COc1ccc(C2C(C(=O)Nc3ccccc3OC)=C(C)Nc3c(C(=O)Nc4ccccc4)cnn32)c(OC)c1 (stereo not drawn),inactive: 159%
15,Cc1ccc(NC(=O)c2c(C)oc3ccc(O)c(CN4CCOCC4)c23)c(C)c1,inactive: 87%
16,CCOc1ccc(NC(=O)N(Cc2c[nH]c3ccccc23)C2CCCCCC2)cc1,inactive: 83%
17,COc1cn(CC(=O)Nc2ccccc2)c(CN2CCCCC2)cc1=O,inactive: 74%
18,COc1ccc(CCNC(=O)CNCC2CCCO2)cc1OC (stereo not drawn),inactive: 98%
19,Cc1ccc(OCC(=O)N(Cc2ccco2)Cc2ccco2)cc1C,inactive: 78%
20,CC(C)CCNC(=O)CCn1c(=O)c2cccn2c2cccnc21,inactive: 88%
21,COc1ccc(CCNC(=O)Cn2cc(S(=O)(=O)Cc3ccccc3Cl)c3ccccc32)cc1OC,inactive: 69%
22,O=C(CSc1nnc(-c2ccccc2F)o1)Nc1ccccc1Cl,inactive: 113%
23,CCSc1nnc2c(n1)OC(c1ccc(C)s1)Nc1ccccc1-2 (stereo not drawn),inactive: 62%
24,CCOc1ccccc1NC(=O)CSc1ncc(S(=O)(=O)c2ccc(C)c(C)c2)c(N)n1,inactive: 124%

row,Compound,survival
1,O=C(Nc1ccccc1C(=O)NC1CCCC1)NC1CCCC1,inactive: 105%
2,COc1ccc(CN(Cc2ccco2)C(=O)c2cc3ccccc3oc2=O)c(OC)c1,inactive: 105%
3,Cc1ccccc1C(=O)N1CCC(C(=O)NC2CCCCCC2)CC1,inactive: 100%
4,O=C(CSc1nnc(-c2ccc(S(=O)(=O)N3CCOCC3)cc2)o1)c1c[nH]c2ccccc12,inactive: 107%
5,COc1ccc(-c2noc(-c3ccc(NCC4CCCO4)c([N+](=O)[O-])c3)n2)cc1 (stereo not drawn),inactive: 83%
6,CNC(=O)c1c(NC(=O)Cc2coc3ccc(C)cc23)sc2c1CCCC2,inactive: 67%
7,CCc1nn(CC(=O)Nc2c(C)cccc2C)c(=O)c2cc3sccc3n12,inactive: 88%
8,O=C(CSc1nc2c([nH]c3ccccc32)c(=O)n1-c1ccccc1)Nc1ccc(Cl)c(Cl)c1,inactive: 90%
9,COc1cc(NC(=O)N2CCC3(CC2)Nc2ccccc2-n2cccc23)cc(OC)c1OC,inactive: 95%
10,COc1ccc(-c2cc(OC(=O)c3cccc(Cl)c3)c3c(C)oc(C)c3c(=O)c2)cc1,inactive: 131%
11,CCOc1ccc(NC(=O)Cn2nnc(C(=O)NCCc3ccccc3)c2N)cc1,inactive: 93%
12,Cc1ccc2nc(-c3cccnc3)c(Nc3ccc(C(C)C)cc3)n2c1,inactive: 75%
13,O=C(COc1ccc2ccccc2c1)NC1CC(=O)N(c2ccccc2)C1 (stereo not drawn),inactive: 85%
14,CCOC(=O)c1cnc2c(-c3ccccc3)c(C(F)(F)F)nn2c1C,inactive: 98%
15,CCOC(=O)c1noc2ncn(CC(=O)Nc3cccc(Cl)c3)c(=O)c12,inactive: 73%
16,O=C(CSc1c2c(nc3cc(Cl)ccc13)CCCC2)N1CCN(c2ccccc2F)CC1,inactive: 69%
17,CN(C)c1ccc(C2NCCS2)cc1 (stereo not drawn),inactive: 99%
18,COc1ccccc1NC(=O)CSc1oc(-c2ccccc2)nc1S(=O)(=O)c1ccc(C)cc1,inactive: 145%
19,Cc1cn2c(=O)c(S(=O)(=O)N3CCN(c4cc(Cl)ccc4C)CC3)c(C)nc2s1,inactive: 90%
20,O=C(c1ccc(F)cc1)n1nc(-c2cccnc2)nc1NCc1ccc(F)cc1,inactive: 79%
21,Cc1nc(-c2ccc(S(=O)(=O)N3CCN(c4cc(Cl)ccc4C)CC3)cc2)co1,inactive: 72%
22,O=C(NCCc1ccc(Cl)cc1)C1COc2ccccc2C1 (stereo not drawn),inactive: 88%
23,CCNC(=O)c1sc2ccccc2c1Cl,inactive: 124%
24,CN(C)CCCNc1cn[nH]c(=O)c1Cl,inactive: 105%

row,Compound,survival
1,Brc1ccc2ncnc(NCCCN3CCOCC3)c2c1,inactive: 114%
2,O=C(Nc1cccc(-c2nc3cccnc3s2)c1)c1cccc(Br)c1,inactive: 33%
3,CCOC(=O)c1ccc(NC(=O)c2cn(-c3ccccc3)nc2-c2ccc(OC)c(OC)c2)cc1,inactive: 140%
4,COc1ccccc1NC(=O)C1=C(C)Nc2sc(C#N)c(N)c2C1c1ccco1 (stereo not drawn),inactive: 107%
5,O=C(Cn1c(=O)oc2cc(S(=O)(=O)N3CCCC3)ccc21)Nc1ccc(F)cc1F,inactive: 88%
6,CCNC(=O)CC1C(=O)N(c2ccc(C)cc2)C(=O)N1CCC(C)C (stereo not drawn),inactive: 84%
7,COc1ccc2c(Sc3ccc(Cl)cc3)c(C(=O)N3CCC(C)CC3)[nH]c2c1,inactive: 38%
8,Cc1ccc(S(=O)(=O)c2nc(-c3cccs3)oc2SC(C)C)cc1,inactive: 64%
9,N#Cc1ccccc1NC(=O)C(=O)NCCc1csc(-c2ccc(F)cc2)n1,inactive: 72%
10,O=C(c1cccc(Cl)c1)n1nc(-c2cccnc2)nc1NCc1ccccc1,inactive: 82%
11,CCCCOc1cccc(NC(=O)c2cccc(C(=O)Nc3cccc(OCCCC)c3)c2)c1,inactive: 73%
12,CCOC(=O)c1c(C)oc2nc(C)nc(NCc3cccc(Cl)c3)c12,inactive: 82%
13,CCOC(=O)c1nc(Nc2ccc(C(=O)OC)cc2)c2ccccc2n1,inactive: 93%
14,CCc1ccccc1NC(=O)c1ccc(=O)n(Cc2ccc(F)cc2)c1,inactive: 60%
15,CCc1ccc(-n2c(=O)c3cccnc3n2CC(=O)Nc2cc(OC)ccc2OC)cc1,inactive: 74%
16,CC1CCN(C(=O)c2cccc(Cl)c2)CC1,inactive: 112%
17,CSCCC(NS(=O)(=O)c1ccc2c(c1)oc(=O)n2C)C(=O)N1CCN(c2ccc(C(C)=O)cc2)CC1 (stereo not drawn),inactive: 91%
18,COc1cccc(C(=O)NCC(=O)OCc2cc(=O)n3ccsc3n2)c1,inactive: 126%
19,COc1cc(OC)cc(C(=O)Nc2nnc3n2CCS3)c1,inactive: 72%
20,Cc1ccc(C(=O)Nc2nc(-c3nnn(-c4cccc(C(F)(F)F)c4)c3C)ns2)cc1,inactive: 75%
21,CCc1nnc(NC(=O)c2sc3nc4ccc(OC)cc4cc3c2N)s1,inactive: 109%
